Here are results for 2 molecules from publication PMC11699347.

Amino acid sequences for entries named in this document (tags omitted). A change or cut given only in a name is not applied to a line headed by its entry. Chains listed by the source or under a name are the forms on record and can include a tag or linker.
UniProt P97303: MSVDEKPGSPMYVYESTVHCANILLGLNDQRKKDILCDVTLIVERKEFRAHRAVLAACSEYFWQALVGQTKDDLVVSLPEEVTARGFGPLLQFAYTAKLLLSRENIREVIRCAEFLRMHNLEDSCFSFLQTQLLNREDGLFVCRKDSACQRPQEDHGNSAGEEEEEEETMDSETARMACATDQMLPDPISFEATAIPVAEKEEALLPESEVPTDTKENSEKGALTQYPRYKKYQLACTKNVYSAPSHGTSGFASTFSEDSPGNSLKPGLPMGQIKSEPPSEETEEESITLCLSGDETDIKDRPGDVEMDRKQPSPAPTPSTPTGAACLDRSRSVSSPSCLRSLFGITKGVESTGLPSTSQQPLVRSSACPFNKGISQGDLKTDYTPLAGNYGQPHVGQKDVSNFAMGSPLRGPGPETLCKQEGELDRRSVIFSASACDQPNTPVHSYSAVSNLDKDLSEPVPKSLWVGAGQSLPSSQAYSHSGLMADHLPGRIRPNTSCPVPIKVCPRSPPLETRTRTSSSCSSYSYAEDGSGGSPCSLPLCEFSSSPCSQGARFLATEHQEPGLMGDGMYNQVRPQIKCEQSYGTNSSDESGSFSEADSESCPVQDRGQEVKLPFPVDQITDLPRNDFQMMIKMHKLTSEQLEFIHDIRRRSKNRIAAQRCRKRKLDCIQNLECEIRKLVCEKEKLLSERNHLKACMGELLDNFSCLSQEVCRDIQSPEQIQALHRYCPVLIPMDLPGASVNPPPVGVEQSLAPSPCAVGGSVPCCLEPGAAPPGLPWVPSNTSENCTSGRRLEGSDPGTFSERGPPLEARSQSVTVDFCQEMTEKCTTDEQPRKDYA
FLAG-BACH2-NHR-5 (P97303, form named): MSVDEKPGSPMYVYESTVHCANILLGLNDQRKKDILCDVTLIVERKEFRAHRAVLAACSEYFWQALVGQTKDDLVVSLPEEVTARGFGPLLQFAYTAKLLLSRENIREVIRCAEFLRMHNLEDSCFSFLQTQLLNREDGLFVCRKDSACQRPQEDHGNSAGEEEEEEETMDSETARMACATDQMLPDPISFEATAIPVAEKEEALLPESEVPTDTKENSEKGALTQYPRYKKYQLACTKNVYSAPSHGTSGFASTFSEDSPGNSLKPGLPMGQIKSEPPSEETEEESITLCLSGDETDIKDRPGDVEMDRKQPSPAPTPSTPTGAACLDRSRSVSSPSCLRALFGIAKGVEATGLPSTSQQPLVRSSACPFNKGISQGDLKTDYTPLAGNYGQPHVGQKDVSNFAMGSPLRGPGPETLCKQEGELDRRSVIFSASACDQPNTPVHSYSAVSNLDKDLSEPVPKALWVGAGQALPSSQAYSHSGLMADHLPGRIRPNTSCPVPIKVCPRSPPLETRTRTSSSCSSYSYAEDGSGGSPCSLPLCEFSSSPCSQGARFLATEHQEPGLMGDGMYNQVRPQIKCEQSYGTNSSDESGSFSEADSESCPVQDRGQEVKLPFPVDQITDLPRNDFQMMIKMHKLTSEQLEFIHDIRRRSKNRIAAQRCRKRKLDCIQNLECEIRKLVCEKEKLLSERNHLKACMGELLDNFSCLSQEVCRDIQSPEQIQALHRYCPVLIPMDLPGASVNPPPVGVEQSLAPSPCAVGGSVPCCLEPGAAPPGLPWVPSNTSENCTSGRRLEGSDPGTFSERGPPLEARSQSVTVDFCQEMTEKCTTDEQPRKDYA

Results are given in words; binding and its absence hold for the method and conditions named. For part of these data: Binding seen in cells or lysates may run through a third protein. Some binding calls cover weakened binding; strength is not graded here. For part of these data: Where a sequence is shown, tags or fusion partners need not be part of it.

Test [1] deals with FLAG-BACH2 (wild-type) (mouse) (UniProt P97303). The test is described as follows: co-IP; HEK293T transfected with FLAG-BACH2 wild type or mutants; lysate (50 mM Tris-HCl pH 8.0, 120 mM NaCl, 0.1% Triton X-100), anti-FLAG magnetic beads 2 h at 4°C, FLAG peptide elution, immunoblot. (Immunoblotting shows a protein as a band on a membrane.)
For the next test, the target named is FLAG-BACH2-NHR-5 (mouse) (UniProt P97303). Described as above.
For test [2], the target named is hBACH2 GAL4-DBD fusion (pFN26A-hBACH2) (human), Q9BYV9. The test is described as follows: two-hybrid; mammalian two-hybrid in HEK293T: GAL4-DBD fusion (pFN26A) and VP-16 AD fusion (pFN10A), pGL4.35-9xGAL4UAS-Luc reporter; also with co-expressed TBK1 or TBK1(S172A) and the TBK1 inhibitor MRT67307. To be noted: remark: other sources report otherwise.

B1: TBK1 in HEK293T cells (enzyme, UniProt Q9UHD2 1-729)
chain: MQSTSNHLWLLSDILGQGATANVFRGRHKKTGDLFAIKVFNNISFLRPVDVQMREFEVLKKLNHKNIVKLFAIEEETTTRHKVLIMEFCPCGSLYTVLEEPSNAYGLPESEFLIVLRDVVGGMNHLRENGIVHRDIKPGNIMRVIGEDGQSVYKLTDFGAARELEDDEQFVSLYGTEEYLHPDMYERAVLRKDHQKKYGATVDLWSIGVTFYHAATGSLPFRPFEGPRRNKEVMYKIITGKPSGAISGVQKAENGPIDWSGDMPVSCSLSRGLQVLLTPVLANILEADQEKCWGFDQFFAETSDILHRMVIHVFSLQQMTAHKIYIHSYNTATIFHELVYKQTKIISSNQELIYEGRRLVLEPGRLAQHFPKTTEENPIFVVSREPLNTIGLIYEKISLPKVHPRYDLDGDASMAKAITGVVCYACRIASTLLLYQELMRKGIRWLIELIKDDYNETVHKKTEVVITLDFCIRNIEKTVKVYEKLMKINLEAAELGEISDIHTKLLRLSSSQGTIETSLQDIDSRLSPGGSLADAWAHQEGTHPKDRNVEKLQVLLNCMTEIYYQFKKDKAERRLAYNEEQIHKFDKQKLYYHATKAMTHFTDECVKKYEAFLNKSEEWIRKMLHLRKQLLSLTNQCFDIEEEVSKYQEYTNELQETLPQKMFTASSGIKHTMTPIYPSSNTLVEMTLGMKKLKEEMEGVVKELAENNHILERFGSLTMDGGLRNVDCL
As to B1, the binding result (in test [1]; with FLAG-BACH2-NHR-5 (mouse)) was “binds” in each case.

B2: hFBXO22 VP-16 AD fusion (pFN10A-hFBXO22), Q8NEZ5-1 1-403 (protein)
chain: MEPVGCCGECRGSSVDPRSTFVLSNLAEVVERVLTFLPAKALLRVACVCRLWRECVRRVLRTHRSVTWISAGLAEAGHLEGHCLVRVVAEELENVRILPHTVLYMADSETFISLEECRGHKRARKRTSMETALALEKLFPKQCQVLGIVTPGIVVTPMGSGSNRPQEIEIGESGFALLFPQIEGIKIQPFHFIKDPKNLTLERHQLTEVGLLDNPELRVVLVFGYNCCKVGASNYLQQVVSTFSDMNIILAGGQVDNLSSLTSEKNPLDIDASGVVGLSFSGHRIQSATVLLNEDVSDEKTAEAAMQRLKAANIPEHNTIGFMFACVGRGFQYYRAKGNVEADAFRKFFPSVPLFGFFGNGEIGCDRIVTGNFILRKCNEVKDDDLFHSYTTIMALIHLGSSK
B2: in test [2], the binding result is reported as “binds”.
